In the supplement of paper PMC10338343:
± gives the standard deviation. Only a part is listed here, and it is no random draw.

Tested on: MIWI (PIWIL1) piRISC loaded with L1MC piRNA (30 nt)
Assay: pre-steady-state target cleavage rate (min^-1); MIWI and MILI are mouse PIWI proteins and EfPiwi is from a freshwater sponge; tags in brackets are library labels; higher = faster piRNA-guided slicing of the target
Details: guide: L1MC piRNA 5'p-UAACUAAAUACUAUGCAAGCUGUAGGUCCU
Procedure, shortened: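 At 33 °C in HEPES–potassium acetate buffer, a transcribed, DNA-blocked target RNA library […] was exposed for 0–8 or 0–960 min to 1 nM active affinity-purified piRISC carrying a single synthetic guide, with or without 500 nM GTSF1 partner protein. Uncleaved targets were sequenced and normalised to depth and to weakly complementary targets. With three trials pooled and k3 capped at 0.0001 min^-1, a burst-and-steady-state fit produced the pre-steady-state cleavage rate.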

[1] = auxiliary factor: 500 nM mouse GTSF1
[2] = auxiliary factor: none (no GTSF1)
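Also: 1 nM active piRISC with 0.1 nM target library at 33 °C single turnover.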

Sequence	pre-steady-state target cleavage rate [1]	pre-steady-state target cleavage rate [2]
UCCUCCAACAGCUUGCAUAGUAUAUAGUUA	0.595 ± 0.037	0.0355 ± 0.0078
UCCUGGAUCAGCUUGCAUAGUAUUUAGUA	0.838 ± 0.043	0.0119 ± 0.0038
UCCUGGUACAGCUAGCAUUGUAUUUAGUUA	0.285 ± 0.032	0.0119 ± 0.0035
UCCUGGAUGAGCUUGCAUAGUAUUUUGUAA	0.12 ± 0.027	0.0108 ± 0.0031
UCGACCUACAGCUUGCAAAGUUUUUAGUUA	0.468 ± 0.022	0.0152 ± 0.0031
UCGACCUACAGCUUGCAUAGUACUUUAGUUA	0.733 ± 0.036	0.0121 ± 0.0031
UCCUGGAUCAGGUUGCAUAGAAUUUAGUUA	0.0793 ± 0.0096	0.00868 ± 0.0035
UCCUGGAAGAGCUUGCAUAGUAAUUAGUUA	0.507 ± 0.046	0.0151 ± 0.0056
UGGACCUACAGCUUGGAUAGAAUUUAGUUA	0.359 ± 0.044	0.0169 ± 0.0058
UCCUGGAUCAGCUUGCAUAGUAUCUAGUUA	0.686 ± 0.029	0.0357 ± 0.008
UCCUGGAUCAGCUUGCAAAGUUUUUAGUUA	0.109 ± 0.013	0.0177 ± 0.0053
UCCUGCUACUGCUUGCAUAGUUUUUAGUUA	0.248 ± 0.024	0.0289 ± 0.0066
AGGACGUACAGCUUCCAUAGUAUUUAGUUA	0.208 ± 0.024	0.00869 ± 0.0017
UCCACCUACAGCUUGGAUAGUAAUUAGUUA	0.674 ± 0.034	0.015 ± 0.0028
UCCUGGUACAGCUUGGAUAGUAAUUAGUUA	0.524 ± 0.13	0.0127 ± 0.0029
UCCUGGAACACGAUGCAUAGUAUUUAGUUA	0.0743 ± 0.013	0.0029 ± 0.0024
AGGUCCUACAGCUUGCAUAGUAAUUAGUUA	0.82 ± 0.045	0.0393 ± 0.008
UCCUGGAUGUGCUUGCAUACUAUUUAGUAA	0.0415 ± 0.0087	0.00941 ± 0.0029
UCCUGCUACAGCUAGCAUAGUAUUUAGUUA	1.26 ± 0.094	0.0139 ± 0.0032
UCCUGCUACUGCUUGCAUAGUAAUUAGUUA	0.301 ± 0.028	0.0143 ± 0.0029
UCCUGGAUGUGCUUGCAUAGUAUUAAGAUA	0.0152 ± 0.0068	0.00358 ± 0.0031
AGGACCUUCAGCUUGCAUAGUAUUUAGAUA	0.559 ± 0.05	0.0523 ± 0.014
UGGACCUACAGCUUGCAUAGUAUUUAGGUUA	0.765 ± 0.064	0.0376 ± 0.0065

Sequence	pre-steady-state target cleavage rate [1]	pre-steady-state target cleavage rate [2]
UUGACCUACAGCUUGCAUAGUAUUUAGUUA	1.16 ± 0.061	0.0724 ± 0.012
UCCUGCUUCAGCUUGCAUAGUAAUUAGUUA	0.823 ± 0.043	0.0173 ± 0.0042
UGGACCUACACCUUGCAUAGUAUUUAGUUA	1.23 ± 0.045	0.0585 ± 0.0088
UCCUGCUACAGCUUGCAUAGUGAUUUAGUUA	0.0926 ± 0.018	0.00463 ± 0.0028
UCCUGGAACAGCUUGCAUAGUAUUUAGAUUA	0.21 ± 0.029	0.0342 ± 0.0092
UGGACCUUCAGGUUGCAUAGUAUUUAGUUA	1.14 ± 0.099	0.0476 ± 0.01
AGGACCUUGUGCUUGCAUAGUAUUUUCAAA	0.0677 ± 0.015	0.00236 ± 0.0022
AGGACCUACAGCUUGCAUAGUAAUUACUUA	0.375 ± 0.057	0.023 ± 0.0064
UCCUGGAACACCUUGCAUAGUAUUUAGUAA	0.392 ± 0.049	0.0052 ± 0.0024
UCCUGGAUGAGCUUGCAUAGUAUUUCGUUA	0.35 ± 0.053	0.0211 ± 0.0053
UCCUGGAACAGCGUGCAUAGUAUUUAGUUA	1.29 ± 0.043	0.0415 ± 0.0072
UCCUCCAACAGCUUGCAAAGUAUUUAGUUA	1.16 ± 0.043	0.0397 ± 0.0099
UCCACCAACACCUUGCAUAGUAUUUAGUUA	0.936 ± 0.044	0.0528 ± 0.0084
UCCUGCUACAGCUUGAUAGUAUUUAGUUA	0.74 ± 0.057	0.00577 ± 0.0023
UCCUGCUUCAGCUUGCAUAGUAUUUAGAAA	0.396 ± 0.047	0.00506 ± 0.0026
UCCUGGAUGAGCUUGCAUAGUAUUUAGUGUA	0.749 ± 0.082	0.046 ± 0.011
UCCUGGAUGUGCUUGCAUAGUAUCUUAGUUA	0.161 ± 0.019	0.0126 ± 0.0032
UCCUGGAUGUGCUUGCAUAGUAUUUAGUAUA	0.205 ± 0.023	0.0114 ± 0.0039
UCCUCCUACUGCUUGCAUACUAUUUAGUUA	0.367 ± 0.017	0.0335 ± 0.0063
UCCUGGAUGAGCUUGCAAAGUAUAUAGUUA	0.323 ± 0.037	0.0143 ± 0.0049
UCCUGGAUGAGCUUGCAUAGUAUUUUCAAA	0.0838 ± 0.029	0.00455 ± 0.0034
AGGACCUACUGCUUGCAUAGAAUUUAGUUA	0.426 ± 0.025	0.02 ± 0.0049
